The shares of active, inactive and inconclusive entries below differ from those in the screen. Unless noted, the call rests on the fitted dose curve; in most records, active means well fitted curve in the direction sought with a large enough effect; inconclusive means small, poorly fitted or top-dose-only effect, or another doubt; inactive means no such curve, though single readings can be large; an effect the other way counts as inactive or inconclusive. Where the call is inconclusive, the potency comes from a doubtful curve fit.
Tests used:
[1] = system: Zika virus NS2B-NS3 protease (linked construct); test: Primary screen NINDS Rhodamine qHTS for Zika virus inhibitors (AID 1347160); conditions: activity change, negative = inhibition: at 57.1 µM (top of the series) unless noted; further: nearly all actives have a fitted effect of over 55% in size
How it was run: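 Purified NS2B-NS3 protease with the NS2B hydrophilic domain joined by a flexible linker (25 nM) in 10 mM Tris-HCl pH 8.0, 0.01% Tween 20, preincubated 15 min at RT with compound; Rhodamine110 peptide substrate 1.5 µM; fluorescence change over 15 min; 4-parameter Hill fit.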

[2] = molecular target: Cytochrome P450 2D6 (Homo sapiens) (UniProt P10635); test: Cytochrome P450 family 2 subfamily D member 6 (CYP2D6) small molecule antagonists: luciferase biochemical (cell-free) qHTS assay (AID 1645840; active means well fitted curve in the direction sought with a large enough effect in the repeat runs; inconclusive means weak or mixed curves; inactive means no such curve, though single readings can be large; an effect the other way counts as inactive or inconclusive; further: nearly all actives have a fitted effect of over 55% in size)
Chain of UniProt P10635 (P10635 whole entry, looked up): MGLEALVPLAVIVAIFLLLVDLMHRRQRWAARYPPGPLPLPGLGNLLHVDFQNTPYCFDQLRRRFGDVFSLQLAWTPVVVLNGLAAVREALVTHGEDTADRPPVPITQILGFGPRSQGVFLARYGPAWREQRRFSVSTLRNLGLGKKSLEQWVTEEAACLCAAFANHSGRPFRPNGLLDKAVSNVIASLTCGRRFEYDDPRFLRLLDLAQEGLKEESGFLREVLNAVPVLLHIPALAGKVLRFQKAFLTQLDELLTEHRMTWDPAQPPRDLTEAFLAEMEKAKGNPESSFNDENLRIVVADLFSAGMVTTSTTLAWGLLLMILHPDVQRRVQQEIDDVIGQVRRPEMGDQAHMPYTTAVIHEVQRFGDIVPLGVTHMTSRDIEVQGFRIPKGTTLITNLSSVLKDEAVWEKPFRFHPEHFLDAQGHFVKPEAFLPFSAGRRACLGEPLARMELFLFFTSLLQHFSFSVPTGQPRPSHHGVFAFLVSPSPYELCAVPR
How it was run: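 P450-Glo luminescent screen: recombinant CYP2D6 enzyme–proluciferin substrate mix preincubated with compound 10 min at room temperature, then NADPH regeneration added for 1 h at room temperature. Detection reagent added for 20 min; luciferin light read as relative luminescence units.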

[3] = Primary fluorescence-based thiol-reactive (MSTI) qHTS assay for identification of artifact compounds. (AID 1845221);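 further: thiol-reactive compounds lower the probe fluorescence signal; nearly all actives have a fitted effect of over 65% in size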
How it was run: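 Thiol-reactive compounds detected by quenching of 4 uM MSTI fluorescence (525/598 nm) after 1 h room-temperature dark incubation in PBS pH 7.4, 2% DMSO. qHTS titration; percent inhibition Hill-fitted against Acetyl-MSTI/MSTI controls.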

CRL-7250 = normal cell line; test: Cytotoxic Profiling of Annotated Libraries Using Quantitative High-Throughput Screening (AID 1296008); conditions: Five cell lines viability, CellTiter-Glo ATP luminescence, 48-72 h; max response: hits give low values; further: nearly all actives have a fitted effect of over 60% in size
How it was run: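 Cells exposed to compounds for 48 or 72 hr at 37 degrees Celsius. Viability read as ATP-coupled luminescence with CellTiter-Glo after 10 min at room temperature.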

CASKI = test: Primary qHTS to identify gynecologic anti-cancer compounds using libraries of approved drugs and bioactive compounds (AID 1345084); conditions: Gynecologic cancer cell panel viability, ATPlite luminescence, 48 h; series mostly up to 57.5 µM; further: nearly all actives have a fitted effect of over 55% in size
How it was run: (§1)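 Five-point cytotoxicity, 48 h drug exposure at 37 C, 5% CO2, on cells seeded 16 h beforehand. ATP content read by ATPlite luminescence.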

OV90 = test: as above; conditions: Gynecologic cancer cell panel viability, ATPlite luminescence, 48 h; series mostly up to 57.5 µM
How it was run: as §1

PA-1 = test: as above; conditions: Gynecologic cancer cell panel viability, ATPlite luminescence, 48 h; series mostly up to 57.5 µM
How it was run: as §1

SKOV3 = test: as above; conditions: Gynecologic cancer cell panel viability, ATPlite luminescence, 48 h; series mostly up to 57.5 µM
How it was run: as §1

Measured: Potency
Potency means the concentration at half of the fitted maximal effect; tags describe the fitted curve by direction and shape.

COc1ccc(-c2cnc3ccc(NCc4ccc(S(N)(=O)=O)cc4)nn23)cc1OC
inconclusive: [1] 39.8 µM [inhibitor, single point] | [2] 37.9 µM [inhibitor, partial curve, poor fit] | [3] 3.36 µM [inhibitor, partial curve] | CRL-7250 = 29.1 µM [inhibitor, single point] | CASKI 0.794 µM [cytotoxic, single point] | OV90 = 39.8 µM [cytotoxic, single point] | PA-1 = 25.1 µM [cytotoxic, partial curve, poor fit] | SKOV3 = 39.8 µM [cytotoxic, single point]
